No constants are given. Whether binding was seen depends on the method and setting. Binding seen in cells or lysates may run through a third protein. Some entries that bind do so weakly or less than the wild type.
What was measured:
VN-Atg11 (yeast) = molecular target: T1, VN-Atg11 (yeast) (UniProt Q12527); experiment: split reporter; BiFC with the two halves of Venus: pVC-SNF7 and pVN-ATGX cotransformed in yeast cells, expression induced in SD-Ura-His-Met for 1.5 h, starved in SD-N for 30 min, YFP dots seen by live-cell fluorescence microscopy; Atg17-Snf7 also tested in vps9Δ, vps21Δ, vps8Δ, pep12Δ, ypt7Δ and vps39Δ cells (dependent on the Rab5 module, not on Ypt7 or Vps39)
T1 sequence: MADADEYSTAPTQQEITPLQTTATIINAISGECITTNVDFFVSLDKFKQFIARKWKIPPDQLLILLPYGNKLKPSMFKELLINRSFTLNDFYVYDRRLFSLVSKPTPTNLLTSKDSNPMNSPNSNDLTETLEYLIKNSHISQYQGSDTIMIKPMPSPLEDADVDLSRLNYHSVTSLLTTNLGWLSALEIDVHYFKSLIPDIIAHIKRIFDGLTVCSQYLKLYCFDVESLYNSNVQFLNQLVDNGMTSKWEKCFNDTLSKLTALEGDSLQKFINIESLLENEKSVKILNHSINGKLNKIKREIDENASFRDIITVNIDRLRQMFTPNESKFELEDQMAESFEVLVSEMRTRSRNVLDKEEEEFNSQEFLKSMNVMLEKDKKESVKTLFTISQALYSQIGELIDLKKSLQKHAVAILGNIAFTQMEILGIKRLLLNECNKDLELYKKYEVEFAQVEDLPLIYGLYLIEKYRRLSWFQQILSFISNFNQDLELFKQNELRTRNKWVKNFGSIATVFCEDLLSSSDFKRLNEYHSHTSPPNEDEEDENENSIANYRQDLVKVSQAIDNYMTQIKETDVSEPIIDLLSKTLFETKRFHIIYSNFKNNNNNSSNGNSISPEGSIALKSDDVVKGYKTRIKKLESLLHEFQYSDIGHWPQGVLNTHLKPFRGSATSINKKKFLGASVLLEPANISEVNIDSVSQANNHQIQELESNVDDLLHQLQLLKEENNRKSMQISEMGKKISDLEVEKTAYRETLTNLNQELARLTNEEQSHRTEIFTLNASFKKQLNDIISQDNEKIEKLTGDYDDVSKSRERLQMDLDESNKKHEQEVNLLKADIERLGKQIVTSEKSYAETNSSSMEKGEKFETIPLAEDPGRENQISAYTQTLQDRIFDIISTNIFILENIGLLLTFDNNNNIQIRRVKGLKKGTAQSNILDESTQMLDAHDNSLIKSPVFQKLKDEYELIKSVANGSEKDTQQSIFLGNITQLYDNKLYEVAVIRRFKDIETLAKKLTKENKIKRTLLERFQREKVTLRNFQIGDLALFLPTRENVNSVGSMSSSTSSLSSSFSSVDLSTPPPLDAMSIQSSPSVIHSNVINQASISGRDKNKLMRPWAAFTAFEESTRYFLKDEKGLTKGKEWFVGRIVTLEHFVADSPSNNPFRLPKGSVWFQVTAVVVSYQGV

VN-Atg17 (yeast) = molecular target: T2, VN-Atg17 (yeast) (UniProt Q06410); experiment: as above
T2 sequence: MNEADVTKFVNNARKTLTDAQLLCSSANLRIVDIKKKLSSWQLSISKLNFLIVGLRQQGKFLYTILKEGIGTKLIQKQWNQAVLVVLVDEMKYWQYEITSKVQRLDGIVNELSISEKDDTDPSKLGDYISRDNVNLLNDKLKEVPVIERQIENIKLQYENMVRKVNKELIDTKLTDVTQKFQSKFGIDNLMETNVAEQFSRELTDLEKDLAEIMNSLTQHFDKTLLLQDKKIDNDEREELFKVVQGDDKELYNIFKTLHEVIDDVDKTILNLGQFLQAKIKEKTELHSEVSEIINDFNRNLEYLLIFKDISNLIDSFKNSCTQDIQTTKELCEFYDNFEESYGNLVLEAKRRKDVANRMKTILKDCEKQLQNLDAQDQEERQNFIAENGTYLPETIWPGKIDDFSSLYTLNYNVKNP

B1: VC-Snf7 (protein, UniProt P39929 1-240)
chain: MWSSLFGWTSSNAKNKESPTKAIVRLREHINLLSKKQSHLRTQITNQENEARIFLTKGNKVMAKNALKKKKTIEQLLSKVEGTMESMEQQLFSIESANLNLETMRAMQEGAKAMKTIHSGLDIDKVDETMDEIREQVELGDEISDAISRPLITGANEVDEDELDEELDMLAQENANQETSKIVNNNVNAAPISENKVSLPSVPSNKIKQSENSVKDGEEEEDEEDEDEKALRELQAEMGL
VN-Atg11 (yeast)
  binding: binds
VN-Atg17 (yeast)
  binding: binds

From PMC6548130
